Laboratory results from the RNAGym collection of RNA variant scans (doi:10.1093/nar/gkz1192).
The source gives no read counts; variants with many changes may rest on few reads.

B1: CPEB3 Ribozyme (parent)
chain: UAACAGGGGGCCACAGCAGAAGCGUUCACGUCGCAGCCCCUGUCAGAUUCUGGUGAAUCUGCGAAUUCUGCUGUAUAUCUC

Variants of: B1
Assay: self-cleavage, relative activity (ratio to wild type); higher = more cleavage; in vitro, sequencing
How it was run: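 Barcoded CPEB3 ribozyme mutants, produced by rounds of error-prone PCR, self-cleaved while being transcribed with T7 RNA polymerase for 5 hours at 37°C and during a subsequent 15 min DNase I step before EDTA was added. Sequencing of template-switched cDNA on Illumina gave cleaved and total reads, and DNA sequencing assigned barcodes to variants. Each variant's relative activity is its cleaved/total read fraction divided by the unmutated ribozyme's fraction, averaged across three batches. A variant needed a minimum of 5 reads.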

Q: Which self-cleavage does the source give for A18U C40U U43C A45C U80C here?
A: 0.07

Q: For A18U C40U U49A, which self-cleavage is on record?
A: 0.25

Q: With A18U C44G U67C as the variant, how does the self-cleavage read?
A: 0.13

Q: Which self-cleavage does the source give for A18U C68A U69C here?
A: 0.26

Q: For A18U G19A A28G U67A U76A, which self-cleavage is on record?
A: 0.1

Q: Which self-cleavage does the source give for A18U G19A G33A U49A U66C U80G here?
A: 0.04

Q: For A18U G19A G33U G53A U69C U78A, which self-cleavage is on record?
A: 0.15

Q: For A18U G19A U41C, which self-cleavage is on record?
A: 0.39

Q: For A18U G19A U43C A45G A57G U58C, which self-cleavage is on record?
A: 0.15

Q: With A18U G19U A35G A45G U54A U66C U72C as the variant, how does the self-cleavage read?
A: 0.07

Q: With A18U G19U U26A U66C U72C as the variant, how does the self-cleavage read?
A: 0.05

Q: Which self-cleavage does the source give for A18U G19U U49A U58C U66C here?
A: 0.4

Q: With A18U G19U U54C A64G U66G as the variant, how does the self-cleavage read?
A: 0.07

Q: Which self-cleavage does the source give for A18U G22A A28G U41C A57G G61C here?
A: 0.14

Q: Which self-cleavage does the source give for A18U G22A U41A A45U A47G here?
A: 0.13

Q: With A18U G22A U41A A57G A64U U72C U76A as the variant, how does the self-cleavage read?
A: 0.05

Q: With A18U G24A U25A U26A A45G U76C U80A as the variant, how does the self-cleavage read?
A: 0.02

Q: With A18U G24A U26C C37U G63C U66C U69C as the variant, how does the self-cleavage read?
A: 0.03

Q: With A18U G24A U72A as the variant, how does the self-cleavage read?
A: 0.16

Q: Which self-cleavage does the source give for A18U G24A U76G here?
A: 0.07

Q: Which self-cleavage does the source give for A18U G24U C62A A64G here?
A: 0.14

Q: With A18U G24U U66C C81U as the variant, how does the self-cleavage read?
A: 0.05

Q: With A18U G24U U72A as the variant, how does the self-cleavage read?
A: 0.13

Q: Which self-cleavage does the source give for A18U G30A A45G U78G here?
A: 0.04

Q: With A18U G30A C34U A64U as the variant, how does the self-cleavage read?
A: 0.08

Q: Which self-cleavage does the source give for A18U G30A G33A U78C here?
A: 0.06

Q: With A18U G30A U49C as the variant, how does the self-cleavage read?
A: 0.16

Q: With A18U G33A U48C A56G U72A as the variant, how does the self-cleavage read?
A: 0.07

Q: For A18U G33A U60C U69C, which self-cleavage is on record?
A: 0.12

Q: With A18U G33A U69C as the variant, how does the self-cleavage read?
A: 0.36

Q: With A18U G33U U43C U60A C68U as the variant, how does the self-cleavage read?
A: 0.13

Q: For A18U G36A A45U A64G, which self-cleavage is on record?
A: 0.12

Q: With A18U G46A U58A as the variant, how does the self-cleavage read?
A: 0.14

Q: With A18U G46A U74A C79A as the variant, how does the self-cleavage read?
A: 0.1

Q: Which self-cleavage does the source give for A18U G53U U69C U72C here?
A: 0.25

Q: With A18U G61A A64G C81U as the variant, how does the self-cleavage read?
A: 0.19

Q: Which self-cleavage does the source give for A18U G61A C62U here?
A: 0.29

Q: For A18U G61A U78A, which self-cleavage is on record?
A: 0.28

Q: For A18U G63U A77U, which self-cleavage is on record?
A: 0.53

Q: Which self-cleavage does the source give for A18U U25A A28G A35G A65G here?
A: 0.1

Q: Which self-cleavage does the source give for A18U U25A A35C U60A here?
A: 0.05

Q: Which self-cleavage does the source give for A18U U25A A35G U43C U51C U80C here?
A: 0.04

Q: With A18U U25A U26C U72A as the variant, how does the self-cleavage read?
A: 0.05

Q: For A18U U25C A28G, which self-cleavage is on record?
A: 0.26

Q: Which self-cleavage does the source give for A18U U25C A28G U31C U41C U74G A77G here?
A: 0.27

Q: With A18U U25C A35G U72C as the variant, how does the self-cleavage read?
A: 0.08

Q: Which self-cleavage does the source give for A18U U25C A45U A47C U49C U54C here?
A: 0.33

Q: Which self-cleavage does the source give for A18U U25C A64G U67A here?
A: 0.06

Q: With A18U U25C A64U U74C as the variant, how does the self-cleavage read?
A: 0.07

Q: With A18U U25C C29G U54G A77G as the variant, how does the self-cleavage read?
A: 0.06

Q: For A18U U25C C29U, which self-cleavage is on record?
A: 0.12

Q: For A18U U25C C29U U54A, which self-cleavage is on record?
A: 0.22

Q: With A18U U25C C32U A57G as the variant, how does the self-cleavage read?
A: 0.07

Q: With A18U U25C C38G C59A as the variant, how does the self-cleavage read?
A: 0.04

Q: For A18U U25C C39A, which self-cleavage is on record?
A: 0.1

Q: With A18U U25C G30A U31C A45U U76A as the variant, how does the self-cleavage read?
A: 0.05

Q: Which self-cleavage does the source give for A18U U25C G33A U60C here?
A: 0.11

Q: Which self-cleavage does the source give for A18U U25C U26A G52A A75G here?
A: 0.21

Q: For A18U U25C U26A U31C C40U C62U, which self-cleavage is on record?
A: 0.07

Q: With A18U U25C U26C as the variant, how does the self-cleavage read?
A: 0.29

Q: With A18U U25C U26C A45G U69C as the variant, how does the self-cleavage read?
A: 0.14

Q: With A18U U25C U26C C39G U54C U76C as the variant, how does the self-cleavage read?
A: 0.2

Q: For A18U U25C U31A U41G U54C U66C C68A, which self-cleavage is on record?
A: 0.18

Q: For A18U U25C U41A U43C C50A U54C, which self-cleavage is on record?
A: 0.1

Q: For A18U U25C U49C, which self-cleavage is on record?
A: 0.08

Q: With A18U U25C U51A as the variant, how does the self-cleavage read?
A: 0.31

Q: For A18U U25C U51G U60C U72C, which self-cleavage is on record?
A: 0.06

Q: Which self-cleavage does the source give for A18U U25C U54A A65G U67C here?
A: 0.11

Q: Which self-cleavage does the source give for A18U U25C U60A G70A A77G here?
A: 0.07

Q: For A18U U25C U60A U78C, which self-cleavage is on record?
A: 0.1

Q: With A18U U25C U67C U69A as the variant, how does the self-cleavage read?
A: 0.13

Q: For A18U U25C U69C, which self-cleavage is on record?
A: 0.49

Q: With A18U U25C U69C U80C as the variant, how does the self-cleavage read?
A: 0.07

Q: With A18U U25C U72A as the variant, how does the self-cleavage read?
A: 0.24

Q: Which self-cleavage does the source give for A18U U25C U76A here?
A: 0.33

Q: For A18U U26A A35G U41G U49C U78A, which self-cleavage is on record?
A: 0.03

Q: Which self-cleavage does the source give for A18U U26A A35U U43C U49C C59A here?
A: 0.08

Q: With A18U U26A A56G U67A U69C U78C as the variant, how does the self-cleavage read?
A: 0.1

Q: For A18U U26A G33U A45C A56G A57U U72C, which self-cleavage is on record?
A: 0.06

Q: With A18U U26A U41C A56U as the variant, how does the self-cleavage read?
A: 0.2

Q: Which self-cleavage does the source give for A18U U26A U43C here?
A: 0.28

Q: With A18U U26A U58A U66C U72C as the variant, how does the self-cleavage read?
A: 0.13

Q: With A18U U26A U67A as the variant, how does the self-cleavage read?
A: 0.21
